# Reference: the supplement of paper PMC7826260
# This is one part of the list. Each Rep nickase domain was tested in vitro on the same pool of single strands (3 µM enzyme, 1 h, 37 °C); shown is the middle of each 90-letter strand. Uncut reads are compared with the no-enzyme pool on a log2 scale; the lower, the more was cut; hits are not called. The scaling is to total reads; uncut strands gain when others are lost, and binding without cutting may add a little.
# Test system: T1, Rep nickase domain of tomato golden mosaic virus
# T1 sequence (residues 1-124, tag not shown): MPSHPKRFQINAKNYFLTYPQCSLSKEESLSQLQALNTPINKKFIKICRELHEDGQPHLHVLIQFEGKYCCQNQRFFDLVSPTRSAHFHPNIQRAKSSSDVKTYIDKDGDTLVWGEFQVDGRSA
# Assay: uncleaved DNA left, log2 of reads against the no-enzyme library (log2 ratio); higher = less cleavage (more negative = more Rep cleavage of the k-mer); sequences stand for … in CTCGTCCG…ACCGGAGA
# Method: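 A pool of 90-nt single-stranded DNAs with seven random bases just before the constant AC of the nick site (name = the seven bases) was cut by 3 µM recombinant His6-SUMO-tagged Rep nickase domain (300 nM DNA, 50 mM HEPES pH 8.0, 50 mM NaCl, 1 mM MnCl2, 1 h, 37 °C, three replicates). Uncut DNA was amplified and sequenced.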
row,Sequence,uncleaved DNA left (log2)
1,GTTTTCA,0.136
2,CTATGTT,-3.07
3,TACCACC,-0.189
4,GACAGGG,0.0744
5,CGTCACG,-0.063
6,TCGTAGG,-0.0149
7,GGACAAC,-0.0421
8,CGAGGTT,0.299
9,CAACCTC,-0.0246
10,GGAAGGA,0.0891
11,CCAATAC,0.0502
12,CGAGAAT,0.174
13,CGCTAGA,-0.0758
14,CCATATC,-0.193
15,ATTGTCT,-0.0726
16,GCTGTGG,0.112
17,ATCTACA,-0.0805
18,CATCTTT,-0.133
19,CTACCTT,0.143
20,ATAAGGG,0.143

row,Sequence,uncleaved DNA left (log2)
1,TATACGA,0.00832
2,CCCACAT,0.0113
3,CCAGGTG,0.0758
4,TGCAGCT,-0.041
5,GTTCACC,-0.0609
6,ACGCGCC,-0.163
7,TCCGAGT,-0.171
8,GCAATTC,0.035
9,AATAAGG,0.216
10,TAGTGGC,-0.0868
11,TATGGTA,0.093
12,GGATTGT,0.081
13,GCTGCAA,-0.042
14,CCTTAGT,0.113
15,GTGCATC,0.0692
16,TTGATCA,0.0338
17,TTTCTTA,0.0625
18,ATTGCAT,0.0276
19,AGCAGAC,0.0152
20,ATTAATC,-0.049
